# About 14,000 (4.5%) of roughly 310,000 compounds showed an effect of 50% or more. Effects have a minus sign here. This is one part of the list.
# Biological target: human ether-à-go-go-related gene (hERG) potassium channel (human, UniProt Q12809)
# Test: primary screen, population patch clamp on CHO cells stably expressing hERG
# 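Note: peak tail current of the secondary pulse compared with the same well before compound.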
# Sequence of human ether-à-go-go-related gene (hERG) potassium channel (Q12809 whole entry, looked up): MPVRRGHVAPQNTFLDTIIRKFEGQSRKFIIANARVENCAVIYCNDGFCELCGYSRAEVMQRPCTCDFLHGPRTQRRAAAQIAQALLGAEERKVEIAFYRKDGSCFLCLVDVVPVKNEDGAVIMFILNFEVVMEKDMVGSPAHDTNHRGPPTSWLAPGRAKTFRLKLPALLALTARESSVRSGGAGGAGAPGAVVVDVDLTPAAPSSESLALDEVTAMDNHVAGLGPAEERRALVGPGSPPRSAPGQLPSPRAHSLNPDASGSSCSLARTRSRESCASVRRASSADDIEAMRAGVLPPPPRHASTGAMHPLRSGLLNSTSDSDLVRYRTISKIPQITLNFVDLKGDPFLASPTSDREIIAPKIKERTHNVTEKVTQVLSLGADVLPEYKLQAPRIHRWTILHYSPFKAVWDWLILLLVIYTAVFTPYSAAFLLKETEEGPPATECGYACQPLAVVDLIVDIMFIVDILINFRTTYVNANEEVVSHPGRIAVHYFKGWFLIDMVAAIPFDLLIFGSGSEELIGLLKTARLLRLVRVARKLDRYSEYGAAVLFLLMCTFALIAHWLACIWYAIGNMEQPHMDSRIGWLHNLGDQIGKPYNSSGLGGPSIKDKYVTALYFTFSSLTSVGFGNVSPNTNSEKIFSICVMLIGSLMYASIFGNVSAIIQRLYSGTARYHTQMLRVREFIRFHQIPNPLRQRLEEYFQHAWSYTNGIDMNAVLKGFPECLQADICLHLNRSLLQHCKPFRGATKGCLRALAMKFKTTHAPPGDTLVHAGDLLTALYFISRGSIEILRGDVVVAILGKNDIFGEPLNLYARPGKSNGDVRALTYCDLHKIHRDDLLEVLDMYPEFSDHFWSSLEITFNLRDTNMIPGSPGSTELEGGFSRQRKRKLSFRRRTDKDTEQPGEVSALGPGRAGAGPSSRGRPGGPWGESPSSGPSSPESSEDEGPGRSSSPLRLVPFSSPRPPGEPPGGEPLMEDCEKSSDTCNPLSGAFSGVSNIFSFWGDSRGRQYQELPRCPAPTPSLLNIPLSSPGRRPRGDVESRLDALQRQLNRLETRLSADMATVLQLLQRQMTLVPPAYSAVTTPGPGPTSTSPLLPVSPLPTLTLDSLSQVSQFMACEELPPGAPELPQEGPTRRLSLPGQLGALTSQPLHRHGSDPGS
row,Structure (SMILES),"hERG current change (%, negative = inhibition) at 10uM [%]"
1,Cc1ccc(OCCCCNC(C)c2ccccc2)c(C)c1 (stereo not shown),2.1
2,Cc1cc(Cl)nc(-c2ccccc2O)n1,34.7
3,CC(=O)c1ccc(NC(=O)C(C)Sc2nnnn2C)cc1 (stereo not shown),-5.7
4,CCOCCCNC(=O)C(NC(=O)Cc1cccs1)c1ccc(OC)cc1 (stereo not shown),13.2
5,CCOC(=O)C1CCN(Cc2ccc(OCc3ccccc3)c(OC)c2)CC1.O=C(O)C(=O)O,-19.3
6,CC1(C)Cc2c(sc(NC(=O)c3ccc(S(=O)(=O)N4CCCCCC4)cc3)c2C(N)=O)C(C)(C)N1,-0.99
7,CCC(C)NC(=O)CCn1ccc2cc(S(=O)(=O)N3CCCC3)ccc21 (stereo not shown),12.3
8,CCNc1nc(NCC)n2c(SCC(=O)Nc3ccccc3C(F)(F)F)nnc2n1,-18.8
9,CCc1nc2c3cnn(-c4cc(Cl)ccc4C)c3ncn2n1,5.24
10,O=C(N/N=C/c1cc(Br)c(O)c(Br)c1O)c1ccc2c(c1)OCCO2,-26.9
11,C/C(=N\NC(=O)c1ccc(C(=O)N/N=C(\C)c2ccco2)o1)c1ccco1,-2.05
12,COc1ccc(C(=O)n2cnc3ccccc32)cc1Br,-2.21
13,CSc1nn2cc(CCN3CCOCC3)c(-c3ccc(F)cc3)nc2c1C#N,-16.2
14,CCc1ccc(CNC(=O)C2CCN(S(=O)(=O)N3CC(C)CC(C)C3)CC2)cc1 (stereo not shown),13.3
15,CCOC(=O)C1CCCN(CCC(=O)Nc2ccccc2)C1.Cl (stereo not shown),-9.04
16,COC(=O)CSc1nnc(CNC(=O)c2ccc(OC)c(OC)c2)n1C,3.33
17,CCn1c(CCCOc2ccc(Cl)cc2Cl)nnc1SCC(=O)Nc1cccc(F)c1,23.4
18,CC(=O)NCc1ccc(S(=O)(=O)N2CCN(c3ccccn3)CC2)cc1,15.5
19,CCC(=O)N1CCN=C1SCc1ccc(F)cc1,-0.768
20,CC1CCN(S(=O)(=O)c2cccc3cccnc23)CC1,0.0673
21,O=C(Nc1ccc(Oc2ccc(NC(=O)c3ccco3)c(NC(=O)c3ccco3)c2)cc1)c1ccco1,-13.5
22,C=CCOn1c(=O)c(-c2ccc(C)cc2)[n+]([O-])c2ccccc21,21.1

row,Structure (SMILES),"hERG current change (%, negative = inhibition) at 10uM [%]"
1,COc1ccc(CN(C)C(C)C(=O)Nc2cccc3ccccc23)cc1 (stereo not shown),-14.1
2,C=CCN(c1ccccc1)S(=O)(=O)c1cccc(C(=O)OCC(=O)NC2CC2)c1,-8.05
3,O=CNC(Cc1ccccc1)C(=O)O (stereo not shown),1.69
4,Cc1ccc(S(=O)(=O)N2CCN(C(=O)c3cc4c(C)nn(-c5ccccc5)c4s3)CC2)cc1,-17.3
5,Cl.N=c1n(CCCOc2ccc(F)cc2)c2ccccc2n1CC(N)=O,-41.6
6,N#C/C(=C\c1ccccc1)C(=O)OCC(=O)N1CCCC1,15.6
7,Cc1ccc2cc(C(c3nnnn3Cc3ccccc3)N3CCc4ccccc43)c(=O)[nH]c2c1 (stereo not shown),-6.55
8,Nc1ccc(Br)cc1C(=O)c1ccccc1,-0.531
9,COc1cccc(-c2noc(C(C)n3nc(C)c([N+](=O)[O-])c3C)n2)c1 (stereo not shown),-20.1
10,O=C(c1ccc(CNc2c(N3CCCC3)c(=O)c2=O)cc1)N1CCc2ccccc2C1,-10
11,Cn1ccc(C(=O)N/N=C/c2ccccc2[N+](=O)[O-])n1,16.5
12,Cc1ccccc1C(=O)NC1CCS(=O)(=O)C1 (stereo not shown),15.5
13,Cc1ccccc1C(=O)NCC(=O)OC(C)C(=O)NC(C)CCc1ccccc1 (stereo not shown),-6.06
14,CCC(=O)N(Cc1cc(=O)[nH]c2ccccc12)C1CCCCC1,-7.86
15,CCN(CC(=O)Nc1ccc(NC(C)=O)cc1)C(=O)/C=C/c1cccs1,3.44
16,COC(=O)c1cnc2c(c(C)nn2C)c1OC,8.08
17,CCOC(=O)Cc1csc(NC(=O)c2ccncc2)n1,3.11
18,COc1ccc(S(=O)(=O)N2CCOCC2)cc1NS(=O)(=O)/C=C/c1ccccc1,13.6
19,O=C(/C=C/c1ccco1)NC(=S)Nc1nc(-c2ccc(Cl)cc2)cs1,12.2
20,CCCN(CCC)S(=O)(=O)c1ccc(NC(=O)c2cc(C(=O)OC)cc([N+](=O)[O-])c2)cc1,16.5
21,Cc1cc(C)n2nc(SCC(=O)NC3CCCCC3)nc2n1,1.68
22,Cc1ccc(C)c(N(CC(=O)NC(C)C)C(=O)CCC(=O)Nc2ccccn2)c1,2.45

row,Structure (SMILES),"hERG current change (%, negative = inhibition) at 10uM [%]"
1,COc1ccc(Cl)cc1C(=O)CSc1nnnn1C,9.82
2,Cc1ccc(C(=O)NCC(=O)OCC(=O)Nc2ccc3[nH]c(=O)[nH]c3c2)cc1,5.19
3,COc1ccc(C)cc1Nc1n[n+](-c2ccccc2)c(-c2cc([N+](=O)[O-])cc(OC)c2O)s1.[Cl-],6.15
4,CCOc1ccccc1NC(=O)C(=O)NCCC1=CCCCC1,5.25
5,Cc1nc2cc(C(=O)N3CCN(C)CC3)ccc2n1C,15.2
6,Cc1ccn2cc(C(=O)Nc3ccccc3N3CCOCC3)nc2c1,-40.5
7,CC(=O)c1sc(NC(=O)C=C(C)C)nc1C,4.69
8,CN(CC(=O)NCc1ccncc1)S(=O)(=O)c1ccccc1,-4.15
9,CC1C(C#N)=C(N)OC2=C1C(=O)CC(C)(C)C2 (stereo not shown),9.35
10,CCCCCOC(=O)CCN1C(=O)/C(=C2\SC(=S)N(CCC(=O)OCCCCC)C2=O)SC1=S,11.8
11,Cc1ccc(S(=O)(=O)c2ccc(Cl)cc2)cc1S(N)(=O)=O,-2.56
12,Cc1ccc(NC(=O)C(OC(=O)c2ccc(NC(N)=O)cc2)c2ccccc2)cc1Cl (stereo not shown),-3.17
13,COC(=O)c1[nH]c2cc(C)ccc2c1NC(=O)CN1CCCc2ccccc21,-25.3
14,CCOC(=O)Cc1csc(NC(=O)c2ccc(S(=O)(=O)N(CCOC)CCOC)cc2)n1,-1.25
15,CC1=CC(=O)c2ccccc2C1=O,-7.36
16,Cc1cc2nc3ccc(N(C)C)cc3nc2cc1N,0.339
17,Nc1c(C(=O)Nc2ccc(F)cc2)sc(=S)n1-c1ccccc1F,8.49
18,COc1ccc2c(c1)c(N=NC(N)=S)c(O)n2CC(=O)c1ccccc1,22.8
19,O=C(CCC(=O)Nc1ccccc1)NNS(=O)(=O)c1ccccc1[N+](=O)[O-],19.6
20,COc1cc(NS(=O)(=O)c2ccc(NC(=S)NC(=O)/C=C/c3ccc(OC)c(OC)c3)cc2)ncn1,10
21,CSc1cccc(NC(=O)c2ccc(Cl)nc2)c1,1.68
22,COc1cc2c(cc1OC)C(c1cccc(OC)c1OC)CC(=O)N2 (stereo not shown),-33.5

row,Structure (SMILES),"hERG current change (%, negative = inhibition) at 10uM [%]"
1,COc1ccccc1N1CCN(C(=O)CC2NC3CCCCC3NC2=O)CC1 (stereo not shown),4.6
2,COCCCNC(=O)C1CCCN(C(=O)Nc2ccc(OC)cc2)C1 (stereo not shown),-14.1
3,COc1cc(CN(C)CC(=O)c2[nH]c(C)c(C(C)=O)c2C)ccc1OC(F)F,-47.6
4,CN(Cc1ccc(Cl)cc1)C(=O)c1ccc2ccccc2n1,-30.8
5,O=C1CCN(Cc2ccccc2)CCN1[C@H](COc1ccccc1)c1ccccc1,-57.9
6,CN1CCN(C2=Nc3cc(F)ccc3Cc3ccccc32)CC1,-35.7
7,CCc1ccc(S(=O)(=O)NCc2csc(-c3cccnc3)n2)s1,-12.4
8,CC1CN(C2CCN(S(=O)(=O)c3ccccc3)CC2)CC(C)O1 (stereo not shown),-3.76
9,O=C(OCC(=O)N1CCCCC1)c1ccc2c(c1)C(=O)N(Cc1ccco1)C2=O,-28
10,CC(=O)Oc1oc(-c2ccccc2)nc1C=Nc1ccccc1,9.9
11,O=C(COc1ccc(S(=O)(=O)N2CCOCC2)cc1)N1CCN(c2ccccc2)CC1,-15.9
12,CC(=O)Nc1ccc(SCC(=O)N(CCC#N)c2ccc(C)cc2)cc1,-24.1
13,Cc1ccc(S(=O)(=O)CCC(=O)OCC(=O)NC(=O)c2ccccc2)cc1,14.3
14,COc1ccccc1N1CCN(C(c2ccccc2Cl)c2nnnn2C(C)(C)C)CC1.Cl (stereo not shown),6.69
15,CCCN(CCC)Cc1c(C(=O)N/N=C/c2cccs2)nnn1-c1nonc1N,-12.8
16,CSc1ccc(/C=N/NC(=O)CN2CCN(Cc3ccccc3)CC2)cc1,-74.6
17,CCOc1ccc(S(=O)(=O)NCCC(=O)NCC(c2ccco2)N2CCCCC2)cc1 (stereo not shown),-17.7
18,Cn1cc(Br)c(C(=O)NC2CCCCC2)n1,-2.74
19,COc1cccc2cc(-c3nnc(SCC(=O)Nc4cc(C(F)(F)F)ccc4Cl)n3N)oc12,8.83
20,O=C(c1ccc(=O)[nH]c1)N1CCN(S(=O)(=O)c2ccccc2)CC1,2.97
21,CC(C)n1nc(C(=O)Nc2ccccc2N2CCOCC2)c2ccccc2c1=O,-7.57
22,C/C(=N\NC(=O)CN(c1ccccc1)S(C)(=O)=O)c1ccccc1O,2.75

# Reference: PMC4336329 (PLoS ONE, 2015)
